Assay results reported in the RNAGym collection of RNA variant scans (doi:10.7554/elife.90254).
The source gives no read counts; variants with many changes may rest on few reads.

B1: OR4K15 (parent)
chain: GUUAACGGUCAUAGGCCAUGGAAACUAGGAGCACCAUUUCGCUGCCAGUGAAGAAAUGAACAAAGAAAAUCUGGGCCAGGCAGGCAUCAAAAGAAAUAGUCUUGCGCUCAACCAGAAAGUCUGUAAUCAUUUUAAGGGUA

Variants of: B1
Assay: self-cleavage, relative activity (ratio to wild type); higher = more cleavage; in vitro, sequencing; the parent is a self-cleaving ribozyme

| Variant | self-cleavage |
| --- | --- |
| G41A A51G A69G A110G A114G A116U | 0.03 |
| A11G A22G A33G A64U A117G | 0.59 |
| C6A A30U A62G A64G U120C | 1.42 |
| A52U A59G U122C | 0.75 |
| U43C A51G A68G A94G | 0.17 |
| A30G U37C A140G | 1.06 |
| U49C U57C U132C A135G | 0.95 |
| A30G U103C A116G | 0.4 |
| A11U G21A A62G U103C | 2.31 |
| A55G A118G A140G | 0.88 |
| U2A U37C A68G U102C | 0.85 |
| A33G A92G U133C | 1.73 |
| A30G U37A A140G | 1.64 |
| U97C U102C A111G | 0.01 |
| A24G A78U U132C | 0.2 |
| G29A A59G U120A | 1.41 |
| U19A A47U A64G | 1.06 |
| A11U U70A U100C U132C | 2.03 |
| A66G A111G A117G | 0 |
| A117G U124C A135G | 1.13 |
| U43A A51U A94G A118G A129G | 0.38 |
| U37C A95U U100C | 2.92 |
| A64U A69G A89U | 0.75 |
| A52G A82G A117G | 0.7 |

| Variant | self-cleavage |
| --- | --- |
| U37G U39A A69G | 1.09 |
| U9C A66U G80A U108C | 0.01 |
| A111U U122C A126G | 0.05 |
| U38C A78U A82G | 0.14 |
| U26A U39C A82G A94U | 0.39 |
| A5C A64G A118G | 0.93 |
| U38G U100C A114U | 0.28 |
| A13U G53U G106A | 0.02 |
| A22G A51G U87C A111U | 0.19 |
| A4G A47G A82G A98U | 1.41 |
| A27G U38C A52U U70C | 0.61 |
| A5G A18G U26C A116G | 0.53 |
| G65A U70C A95G | 0.6 |
| G8A U72C A95G U103C U130C | 0.14 |
| A86G A94G U108C | 0.01 |
| A52G A98U A118C | 1.07 |
| A5U A30G U37C A68G A69G A117G | 0.52 |
| U19C C45A U108C A118G A129C | 0.01 |
| A59G A89G U132C | 1.86 |
| U9C U12A U39C A59G A86G U120A U130C | 0.57 |
| A36U A59G A63G A111G G138A | 0.07 |
| A56G A63G U131C | 1.76 |
| A55G G99A U127A U131C A135U | 0.84 |
| A23G A54U A69G G93A A110G | 0.03 |

| Variant | self-cleavage |
| --- | --- |
| A52G A56G A68U U108C | 0.06 |
| A60G C85U G104A | 0.16 |
| C10A A51G U87A | 0.51 |
| G7A A91G U100C A126G U139C | 2.43 |
| G20A U49C A56G | 0.61 |
| U102C U120C U127C | 1.51 |
| A5G A56G A86U A89U G106A | 0 |
| U9C A23G G58A A68G U132C | 1.27 |
| A23C A54U U122C | 0.88 |
| U9C A54G U87C U124C | 0.82 |
| A51U G53A A78C | 0.47 |
| A126G U127C A140G | 0.68 |
| U2A A66G U102C U103G | 0.85 |
| A66C A95G U122C | 2.61 |
| G75A A92G A117G A118G | 0.09 |
| A22U A36C U103C | 1.38 |
| U19A A22G A55U A111G A125G | 0.01 |
| A59U A82G A95U C109A A111G | 0.02 |
| U39C U87C A92G A95G A96G | 2.35 |
| A64G A111U A126G | 0.09 |
| A5G A78G U108C A117G | 0.04 |
| U39C A47G A54G | 0.58 |
| U43C U49C A56G | 1.65 |
| A52G A59U A60C | 0 |

| Variant | self-cleavage |
| --- | --- |
| U9C A18G A66U A90U A96G | 0.9 |
| A18U U43G A47G A92G | 0.92 |
| A90G A94G A117G | 2.01 |
| A5U U9C A23U A111G | 0.16 |
| A27G A51C A64U U108A | 0.03 |
| U19A U102C U127C U132C | 0.59 |
| G14C U38C U49C A55G A64G A117G | 1.1 |
| U3C A33G A60G | 1.02 |
| A11U C81U U108C A134U | 0.02 |
| U26C U37G A52G U127C | 1.1 |
| A22G U103A U130C | 0.51 |
| A55G A66G G73U | 0.12 |
| A24G A55G G58A A118G | 0.39 |
| A11G A23G U39C A117G A129C | 0.56 |
| A64G A69G G75A A118G | 0.13 |
| U37C A56U U87C A92G | 1.02 |
| G7A A56G G83A A110G | 0.06 |
| U43A A66G A95G | 2.57 |
| A62G A90G C121A | 1.87 |
| A47G A51G U139A | 0.68 |
| U70A A96C A98G | 0.4 |
| U9C A18U U72C | 0.31 |
| G50A A98G U124A | 0.26 |
| A96G A125G U131C | 0.17 |

| Variant | self-cleavage |
| --- | --- |
| A24G A63G A64G | 1.78 |
| A69U U97A U133C | 2.28 |
| A33G A47G A90G A116G A117G | 0.16 |
| A13U A30G A82G A89G A90G A95G A110G | 0.16 |
| U39A G48A A59G A89G U100C | 1.9 |
| A82G A91G U131C | 0.04 |
| A117G A118U A135G | 0.81 |
| A55G A78U U102C U130C | 1.14 |
| A11G A47C U132C | 0.23 |
| U38A G50A A52G | 1.63 |
| U19A A78U A96G U102A U108C | 0 |
| A5C A56U A78G U87C A92G U130C G137U | 0.2 |
| U19C A51G U132A | 1.01 |
| A47G A59G A63G A96G | 0.79 |
| G31A A89G A126G | 1.08 |
| C10U U103A U130C | 0.34 |
| A55G A66G U122C | 1.6 |
| A30U A95G A117G | 2.35 |
| U2C C45U U133C | 1.12 |
| A56G U87A C88U A96U U102C | 1.85 |
| A33G U57A A59G A78G G79A | 0.14 |
| G65U A125G U130A U131C | 0.37 |
| A63G A91G A92G A94G | 0.75 |
| U2A U70C A126G | 0.54 |

| Variant | self-cleavage |
| --- | --- |
| U9C A86G A110G | 0.18 |
| U9G A36G A55G A82U A96G | 0.09 |
| A54C U102C A114C A129C | 0.01 |
| A30G A55G A92G A134U | 0.97 |
| C16A A30U A54G A69G A126G U130C | 0.43 |
| A56G A59G A67G A96G | 0.27 |
| A5G U9G U127C | 0.66 |
| A22G A47G U139C | 0.91 |
| U9C A30U A118G | 1.56 |
| A22G A52G A98G | 0.22 |
| A5G U19A A60G A78C A92G A111G A129G | 0.01 |
| A22G A64G A90U C113A | 0.18 |
| A18G A92G U132A A135G | 1.42 |
| A51G A60U A68G U72A A96G | 0.12 |
| A33G A134U A135G | 1.12 |
| A33G U57C A95G A117U | 0.57 |
| A22G C32U A33G A56G A96G | 1.25 |
| A47G A52U A78G A90G U120C | 0.11 |
| U49C A117G U131C | 1.78 |
| A51G A90G U133A | 1.02 |
| A47G A118C U122C | 0.29 |
| G31A A33G A68G A110G | 0.19 |
| A18G A92G U102C A117G | 1.58 |
| A18G U38C U122C | 1.19 |

| Variant | self-cleavage |
| --- | --- |
| A51G U87A U102C | 2.17 |
| U49A C61U U70C | 0.39 |
| U19G A66G A135G | 1.6 |
| G20A A24G A59G A78U A91G A117G | 0.05 |
| G7A A13U A24C A30G U39C A125G U130G | 0.3 |
| U9A U122C A129G | 0.58 |
| A23G A59G A114G | 0.13 |
| A36U U39C A78C | 0.33 |
| G8A A82G A90G U102C U130C | 0.69 |
| A47G A63G A110G | 0.09 |
| C40U A66G U87C U133A | 1.7 |
| U37C U38C A67G C85U | 0.73 |
| U2C A55G A69G U122A | 1.17 |
| A59G A64G U132C | 0.65 |
| A33G A55G A78G U102C | 0.25 |
| U9A A118G U122C | 1.03 |
| A13G A64G A67G A69G | 1.37 |
| A18G A36G A66G C113G | 0.01 |
| U19C A126G U127C U131C | 0.52 |
| A54C U87C A94G C121A | 0.45 |
| A22G U43C U57C A69G U108C A129G | 0 |
| U37C U38A A95G U108A | 0.01 |
| C35A U43C A118G G137A | 1.61 |
